According to PMC4336329 (PLoS ONE, 2015):
Out of some 310,000 compounds screened, about 14,000 (4.5%) showed an effect of 50% or more. Effects have a minus sign here. Some of the results follow.

target: human ether-à-go-go-related gene (hERG) potassium channel (human, UniProt Q12809); experiment: primary screen, population patch clamp on CHO cells stably expressing hERG
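Note: peak tail current of the secondary pulse compared with the same well before compound.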

Sequence of human ether-à-go-go-related gene (hERG) potassium channel (Q12809 whole entry, looked up): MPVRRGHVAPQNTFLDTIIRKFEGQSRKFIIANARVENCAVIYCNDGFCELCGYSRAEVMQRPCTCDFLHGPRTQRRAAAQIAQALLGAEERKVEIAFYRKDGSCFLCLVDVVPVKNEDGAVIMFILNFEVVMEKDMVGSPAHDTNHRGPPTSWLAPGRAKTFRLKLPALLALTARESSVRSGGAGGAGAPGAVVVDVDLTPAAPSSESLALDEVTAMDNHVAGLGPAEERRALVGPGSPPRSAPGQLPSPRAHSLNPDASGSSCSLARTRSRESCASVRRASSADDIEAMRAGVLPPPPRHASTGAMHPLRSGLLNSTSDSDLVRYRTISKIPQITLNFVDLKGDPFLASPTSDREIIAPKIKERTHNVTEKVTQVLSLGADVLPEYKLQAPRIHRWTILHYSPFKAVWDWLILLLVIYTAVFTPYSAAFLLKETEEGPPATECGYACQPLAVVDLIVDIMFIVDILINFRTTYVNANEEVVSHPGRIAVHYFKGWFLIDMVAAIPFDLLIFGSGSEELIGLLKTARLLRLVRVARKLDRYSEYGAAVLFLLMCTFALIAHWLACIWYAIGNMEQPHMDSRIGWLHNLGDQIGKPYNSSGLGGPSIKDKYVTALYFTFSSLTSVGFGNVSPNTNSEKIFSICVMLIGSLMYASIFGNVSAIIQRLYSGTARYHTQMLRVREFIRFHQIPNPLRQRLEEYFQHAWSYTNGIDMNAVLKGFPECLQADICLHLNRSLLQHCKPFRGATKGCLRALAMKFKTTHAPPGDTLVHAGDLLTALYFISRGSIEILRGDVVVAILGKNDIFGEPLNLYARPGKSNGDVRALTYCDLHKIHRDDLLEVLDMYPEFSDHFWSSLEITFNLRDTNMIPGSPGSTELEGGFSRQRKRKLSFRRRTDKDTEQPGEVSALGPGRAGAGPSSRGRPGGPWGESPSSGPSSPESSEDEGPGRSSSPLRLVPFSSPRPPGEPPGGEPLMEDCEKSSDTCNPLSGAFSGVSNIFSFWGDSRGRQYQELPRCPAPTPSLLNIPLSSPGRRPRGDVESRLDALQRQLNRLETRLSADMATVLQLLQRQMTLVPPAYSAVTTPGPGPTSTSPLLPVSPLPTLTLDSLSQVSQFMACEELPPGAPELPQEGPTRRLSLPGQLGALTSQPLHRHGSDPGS

SMILES | hERG current change (%, negative = inhibition) at 10uM [%]
CCN(CC)C(=O)c1ccc(NC(=O)c2ccc(-n3cncn3)c([N+](=O)[O-])c2)cc1 | -0.0451
COc1ccc(NC(=O)CN2C(=O)NC3(CCCC3)C2=O)cc1 | 13.7
COc1cccc(C(=O)NCC(=O)NCc2cc(=O)n(C)c(=O)n2C)c1OC | 6.16
CC(=O)OC[C@H]1O[C@@H](O/N=C(\C)CCN2CCCCc3nc(C)c(C)cc32)[C@H](OC(C)=O)[C@@H](OC(C)=O)[C@@H]1OC(C)=O | -19.5
CCOC(=O)N1CCC(N2CCN(S(=O)(=O)c3ccc4ccccc4c3)CC2)CC1.O=C(O)C(=O)O | -6.5
CSc1nc(SCCN(C)C)c2c3c(sc2n1)COC(C)(C)C3 | -47
CCOC(=O)c1c(NC(=S)Nc2cccc(C)c2)sc2c1CC(C)(C)SC2 | 1.74
Cl.OC(COc1ccccc1)CN1CCN(CC(O)COc2ccccc2)CC1 (stereo not drawn) | -61.7
COc1ccc(NC(=O)COc2ccc(/C=N/NC(=O)c3cccnc3)cc2OC)cc1 | -11.9
COc1ccc2nc(C)cc(Nc3cccc(C(=O)O)c3)c2c1 | 21.7
COc1ccc(CN2CCN(C(=O)c3cccc4ccccc34)CC2)cc1OC.O=C(O)C(=O)O | -3.88
COc1cc(OC)cc(C(=O)NC(=S)NNC(=O)[C@H]2C[C@@H]2c2ccccc2)c1 | 28.5
Cc1csc2c(N3CCCCC3)ncnc12 | 6.1
O=C(Nc1cccc([N+](=O)[O-])c1)c1ccc(-c2ccccc2)cc1 | -8.22
CCn1c(SCc2ccc(C(=O)OC)o2)nc2sc3c(c2c1=O)CCCC3 | 11.1
O=C(CN1C(=O)/C(=C\c2ccccc2F)SC1=S)Nc1nc2ccccc2s1 | 6.36
Cc1ccc(NS(=O)(=O)c2ccc(Br)s2)nc1 | 23.4
Cc1cccc([C@@H]2[C@@H]3C(=O)N(Cc4ccccc4)C(=O)[C@@H]3[C@]3(Cc4ccccc4)C(=O)N(c4cccc(F)c4)C(=O)N23)c1 | 7.77
CCCCn1c(N)c(N(CCOC)C(=O)COC(=O)C(C)(C)Oc2ccc(Cl)cc2)c(=O)[nH]c1=O | -14.7
O=C(CNS(=O)(=O)N1CCOCC1)N/N=C/c1cccnc1 | 11.2
COCCNCCOc1ccc(C)cc1[N+](=O)[O-].O=C(O)C(=O)O | -29.5

SMILES | hERG current change (%, negative = inhibition) at 10uM [%]
CC(C)(C)Nc1nc(Oc2ccc(=O)n(-c3ccccc3)n2)nc(N2CCOCC2)n1 | -6.58
CCOC(=O)c1sc2nc3c(SCC(=O)O)cc(C(=O)c4cc(F)ccc4O)cn3c(=O)c2c1C | 7.27
CCCn1c(SCC(=O)Nc2nc3c(s2)CCCC3)nc2c1c(=O)n(C)c(=O)n2C | -1.39
Cc1cc(C)cc(NC(=O)Cn2nnc(C(=O)NCc3ccccc3Cl)c2N)c1 | 15.3
C[N+]1(C)C2CC(OC(=O)C(CO)c3ccccc3)CC1C1OC12.[Br-] (stereo not drawn) | -0.198
CCN(CC)C(=O)c1ccc(NS(=O)(=O)c2ccc(/C=C/C(=O)O)cc2)cc1 | 19.8
C=C(C)CCC(C)N1CCC(n2nccc2NC(=O)CCCc2ccccc2)CC1 (stereo not drawn) | -74.2
Cc1ccc(-c2noc(=O)n2CC(=O)Nc2ccc(S(=O)(=O)NC3CC3)cc2)cc1 | -7.37
O=C(Nc1ccccc1)c1ccccc1N=Cc1ccccc1O | 2.2
Cc1nn(C)c(C)c1S(=O)(=O)N(CC(=O)NCCCOC(C)C)c1ccc(C(C)C)cc1 | -69.6
Cc1noc(C)c1CSCC(=O)N1CCN(c2ccc(F)cc2)CC1 | -38.1
Cc1csc(NC(=O)C2C3C=CC(O3)C2C(=O)O)n1 (stereo not drawn) | 12
COc1ccc(/C=C/C(=O)NCC(=O)N=Nc2c(O)[nH]c3ccc([N+](=O)[O-])cc23)cc1 | 13.6
CCOC(=O)N1CCN(C(=S)Nc2cc(OC)c(OC)cc2C(=O)OC)CC1 | 4.68
c1ccc2sc(-c3ccncc3)nc2c1 | -4.32
O=C1c2ccccc2S(=O)(=O)c2cc(C(=O)N3CCN(c4ccccc4)CC3)ccc21 | -25
COc1ccccc1Nc1cc(C(=O)NCCCN2CCOCC2)c2ccccc2n1 | -37.3
O=C(CSC(=S)N1CCOCC1)N1N=CCC1c1ccccc1 (stereo not drawn) | -5.99
COC(=O)[C@]1(Cc2ccccc2)N[C@H](c2ccc(-c3ccc(OC)cc3)cc2)[C@@H]2C(=O)N(C)C(=O)[C@@H]21.O=C(O)C(F)(F)F | -9.55
CN(C)c1ccnc2sc(C(=O)c3ccc(Br)cc3)c(N)c12 | 10.5
CCn1cc(CN2CCC(C(=O)Nc3cccc(-c4cccc(OC)c4)c3)CC2)cn1 | -49.8

SMILES | hERG current change (%, negative = inhibition) at 10uM [%]
O=C1COc2ccc(S(=O)(=O)CCC(=O)N3CCN(c4cccc(C(F)(F)F)c4)CC3)cc2N1 | -46.3
O=[N+]([O-])c1ccc(NCc2ccccc2N2CCC(CO)CC2)nc1 | -36.7
CC(C)NC(=O)C1CCCN(S(C)(=O)=O)C1 (stereo not drawn) | 16.2
Cc1nc2ccc(S(=O)(=O)N(C)CC(=O)Nc3ccccc3F)cc2s1 | -17.1
N#CCn1c(C2CCCCC2)nc2ccccc2c1=O | -20.6
CCOC(=O)/C(C#N)=C1\CC2CCC1(C)C2(C)C (stereo not drawn) | 9.79
COc1cc(NC(=S)NCCCN2CCOCC2)cc(OC)c1 | -5.39
Cn1c(SCC(=O)NCCc2ccccc2)ncc(C(=O)Nc2ccccc2)c1=O | 6.68
COc1ccc2cc1Oc1ccc(cc1)CC1c3c(cc(OC)c4c3Oc3cc5c(cc3O4)CCNC5C2)CCN1C (stereo not drawn) | 0.681
Nc1ncnc2c1cnn2C1CCCCC1 | 14.4
CNC(=O)COc1ccc(C=O)cc1OC | 6.75
N#Cc1ccc(-c2ccc(Cl)cc2)nc1SCC(=O)c1cccc(Cl)c1 | 28.9
Cc1ccc2sc(N(CCCN(C)C)C(=O)c3nc4ccccc4s3)nc2c1C.Cl | 3.59
CCN(CC)C(=O)CSC(=Nc1ccccc1F)NC#N | -6.3
CC(Oc1cccc(Cl)c1)C(=O)Nc1cc(Cl)ccc1N1CCOCC1 (stereo not drawn) | -8.33
CC(=O)N(C)CC#CCN1CCCC(CO)C1 (stereo not drawn) | 0.563
O=C1C2CC=CCC2C(=O)N1c1ccc(N2CCN(c3ccccn3)CC2)c([N+](=O)[O-])c1 (stereo not drawn) | 7.61
Oc1cccc(/C=N/Nc2nn3cnnc3c3ccccc23)c1 | 9.42
COc1ccccc1N(CC(=O)NC1CCCC1)C(=O)c1cnn(C(C)C)c1 | 2.92
O=C(N/N=C1\CCCc2c1[nH]c1ccc([N+](=O)[O-])cc21)c1ccncc1 | -37.5
COC(=O)c1sc(NC(=O)CSc2nc3nc(C)cc(C)n3n2)c(C(=O)OC)c1C | -25.2

SMILES | hERG current change (%, negative = inhibition) at 10uM [%]
CCOC(=O)C1CCCN(C2=NC(=O)/C(=C/c3ccc(OC)cc3)S2)C1 (stereo not drawn) | -20.1
CC(=O)c1ccc(NC(=O)C(C)Sc2ccccn2)cc1 (stereo not drawn) | 16.2
COc1ccc2occ(C(=O)c3ccc(N=C(C)N(C)C)cc3)c2c1 | -58.8
O=C(CN1C(=O)S/C(=C/C=C/c2ccccc2)C1=O)Nc1ccc(C(=O)O)cc1 | 10.7
Cc1ccc(-n2c(CCc3nc4ccccc4[nH]3)n[nH]c2=S)cc1 | 22.3
Cc1ccc(CNC(=O)CC(C)S(=O)(=O)c2cc3c(cc2C)NC(=O)CO3)cc1 (stereo not drawn) | -16.1
CCOCc1nnc(NC(=O)c2c(OC)cccc2OC)s1 | 14.7
CCN1CCN(c2ncnc3c2cnn3-c2ccc(C)cc2C)CC1 | -4.25
Cc1cccc(N=Nc2cn[nH]c2-c2ccco2)c1 | 5.4
Fc1ccc(CCNC(=S)Nc2ccc(F)cc2)cc1 | -13.2
C/C(=N/NC(=O)c1cccs1)c1cccc(NC(=O)C2CC2)c1 | 1.63
CC#CCN1c2ccccc2[C@]23C[C@@H](C(=O)OC)N=C2NC(C(=O)OC)=C(C(=O)OC)[C@H]13 | -6.37
COc1ccc(N(CC(=O)Nc2ccc3c(c2)OCO3)S(=O)(=O)c2ccc(F)cc2)cc1 | 14.1
CC(=O)c1ccc(S(=O)(=O)Nc2cc3c(cc2C(C)=O)OCO3)cc1 | 21.2
O=c1cc(-c2cccc(Cl)c2)oc2cccc(O)c12 | -12.8
CC(=O)Nc1cccc2c1C(=O)NC2=O | 1.34
O=C(COC(=O)c1ccc(C(F)(F)F)cc1)NC(=O)NC1CCCC1 | 8.39
O=C(CCC(=O)c1ccc(Cl)cc1)NCc1ccccc1 | 49
S=C(NCc1ccccc1)NCc1cccc(Cl)c1 | -11.4
CN(C)C(=O)CSc1nnc(CCNC(=O)OC(C)(C)C)o1 | -21.4
O=C(NCc1ccco1)c1cc(-c2ccccc2)on1 | 1.26
